± gives the standard deviation. The list shows a part of the results, in another mix than the full data.
Each sequence was assayed on MIWI (PIWIL1) piRISC loaded with piRNA #1 (30 nt) (assay: pre-steady-state target cleavage rate (min^-1); MIWI and MILI are mouse PIWI proteins and EfPiwi is from a freshwater sponge; tags in brackets are library labels; higher = faster piRNA-guided slicing of the target). Details: guide: piRNA #1 5'p-UGAGGUAGUAGGUUGUAUAGUAUCCAGAGG; auxiliary factor: 500 nM mouse GTSF1.
Summary of the method: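 The method was Cleave-'n-Seq, in which uncleaved targets from a transcribed, DNA-blocked target RNA library were sequenced after exposure to active affinity-purified piRISC carrying one synthetic guide, with or without GTSF1 partner protein. Reactions contained 0.1 nM library, 1 nM piRISC and, where present, 500 nM GTSF1 in HEPES–potassium acetate buffer at 33 °C for 0–8 or 0–960 min. Reads were normalised to depth and to weakly complementary targets, three trials were pooled, and k3 was capped at 0.0001 min^-1. The pre-steady-state cleavage rate came from a burst-and-steady-state fit.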

Row | Sequence | pre-steady-state target cleavage rate
1 | GGUCUGGUAACUAUACAACCUACUACCUCA | 1.71 ± 0.097
2 | GGAGACGAUACUAAACAACCUAGUACCUCA | 0.365 ± 0.043
3 | GGAGAGGAUACUAUCAACCUACUACCUCA | 1.31 ± 0.085
4 | GGAGUGCAUACUUUACAACCUACUACCUCA | 1.26 ± 0.086
5 | GGAGACCUAUCUAUACAACCUACAACCUCA | 0.298 ± 0.035
6 | GGAGACCUUACUAUACAACCCACUACCUCA | 0.559 ± 0.029
7 | CCUCUGCAUACUAUACAACCUACUACGUCA | 1.62 ± 0.14
8 | GGAGACCUAUGAUAAGAACCUACUACCUGA | < 0.0001
9 | GGAGUGGAUACUAUAGAACCUAGUACCUCA | 0.00753 ± 0.0026
10 | GGUCUGAAUACUAUACAACCUACUACCUCA | 1.8 ± 0.097
11 | GGAGACCUAUCUACACAACCUACUACCUCA | 0.396 ± 0.04
12 | GCACUGGAUACUAUUCAACCUACUACCUCA | 1.85 ± 0.11
13 | GGACAUGGAUACUAUACAACCUACUACCUCA | 1.72 ± 0.092
14 | GGAGUCGAUACUAUACUACCUACUACCUCA | 1.17 ± 0.085
15 | CCUCUGGAUACUUUACAACCUACUACCACA | 1.54 ± 0.12
16 | GGAGACGAUACUAUACAACCUAGUACCACA | 0.209 ± 0.065
17 | CCUCUGGAUUCUAUACAACCUACUAGCUCA | 0.43 ± 0.052
18 | GCUCUGGAUACUAUACCACCUACUACCUCA | 1.62 ± 0.093
19 | GGAGUGGUUACUAUACAACCUUCUACCUCA | 0.629 ± 0.029
20 | CCACUGGAUACUUUACAACCUACUACCUCA | 1.99 ± 0.12

Row | Sequence | pre-steady-state target cleavage rate
21 | GGAGACCUAUCUAUACAACCUACUACGCUCA | 0.915 ± 0.073
22 | GGUCUGGAUUCUAUACAACCUACAACCUCA | 0.497 ± 0.046
23 | GGAGAGGAUACUAUACAGCCUACUACCUCA | 0.57 ± 0.027
24 | GGUCUGGAUCCUAUACAACCUACUACCUCA | 1.57 ± 0.11
25 | GGAGACCAUACUAUUCAACGUACUACCUCA | 0.321 ± 0.028
26 | GGUCUGGAUACUAUACAACCUACUACCAUCA | 0.369 ± 0.035
27 | GGACUCGAUACUAUACAACCUACUACCUCA | 1.69 ± 0.12
28 | GGUCUGGUUACUAUACAACCUUCUACCUCA | 0.746 ± 0.038
29 | GGAGACGAUACUAUACAACGUACUACCUCA | 0.788 ± 0.037
30 | GGAGACCUUACUAUACAACGUACUACGUCA | 0.377 ± 0.052
31 | GGAGACCUUACUAUACAACCUAACUACCUCA | 0.0245 ± 0.0041
32 | CCUCUGGAUACUAUACAACAUACUACCUCA | 1.47 ± 0.073
33 | GGAGACCAUACUUUACAACCAACUACCUCA | 0.178 ± 0.039
34 | CCUCUGGAUUCUAUACAUCCUACUACCUCA | 1.35 ± 0.074
35 | GGAGACCAUACUAUAGAACGUACUACCUCA | 0.226 ± 0.03
36 | GGAGACCUAACUCUACAACCUACUACCUCA | 0.234 ± 0.047
37 | GGACUGGAUACUAUACAUCCUACAACCUCA | 0.689 ± 0.067
38 | GGAGACGAUACUAAACAACCUACUAGCUCA | 0.498 ± 0.048
39 | GGAGACGAUACUAUACAACCUACUUACCUCA | 1.41 ± 0.078
40 | GGAGACCUAAUAUACAACCUACUACCUCA | 0.265 ± 0.048

Reference: the supplement of paper PMC10338343
